The values below come from PubChem BioAssay AID488969 (Vanderbilt High Throughput Screening Facility, 2010).

In all, about 110,000 compounds were measured (“z-score”: median about -0.1, highest 2% from about 2 on). The list shows a part of the results. Activity calls are given as the source filed them.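 Rule for the calls: active = z-score in the third read window above 3 or below -3; inactive = the rest.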

This test addresses Metabotropic glutamate receptor 8 (Rattus norvegicus) (UniProt P70579). As to the kind of experiment: rat mGluR8 modulators via GIRK flux, primary screen, cell-based, thallium flux, HTS (AID 488969). The settings on record: HEK293 rat mGluR8, GIRK (G protein-gated inwardly rectifying potassium channel) thallium flux, FluoZin2; at 10 µM; stronger effect = higher value; submaximal glutamate (EC20) added with thallium.
Chain of UniProt P70579 (P70579 whole entry, looked up): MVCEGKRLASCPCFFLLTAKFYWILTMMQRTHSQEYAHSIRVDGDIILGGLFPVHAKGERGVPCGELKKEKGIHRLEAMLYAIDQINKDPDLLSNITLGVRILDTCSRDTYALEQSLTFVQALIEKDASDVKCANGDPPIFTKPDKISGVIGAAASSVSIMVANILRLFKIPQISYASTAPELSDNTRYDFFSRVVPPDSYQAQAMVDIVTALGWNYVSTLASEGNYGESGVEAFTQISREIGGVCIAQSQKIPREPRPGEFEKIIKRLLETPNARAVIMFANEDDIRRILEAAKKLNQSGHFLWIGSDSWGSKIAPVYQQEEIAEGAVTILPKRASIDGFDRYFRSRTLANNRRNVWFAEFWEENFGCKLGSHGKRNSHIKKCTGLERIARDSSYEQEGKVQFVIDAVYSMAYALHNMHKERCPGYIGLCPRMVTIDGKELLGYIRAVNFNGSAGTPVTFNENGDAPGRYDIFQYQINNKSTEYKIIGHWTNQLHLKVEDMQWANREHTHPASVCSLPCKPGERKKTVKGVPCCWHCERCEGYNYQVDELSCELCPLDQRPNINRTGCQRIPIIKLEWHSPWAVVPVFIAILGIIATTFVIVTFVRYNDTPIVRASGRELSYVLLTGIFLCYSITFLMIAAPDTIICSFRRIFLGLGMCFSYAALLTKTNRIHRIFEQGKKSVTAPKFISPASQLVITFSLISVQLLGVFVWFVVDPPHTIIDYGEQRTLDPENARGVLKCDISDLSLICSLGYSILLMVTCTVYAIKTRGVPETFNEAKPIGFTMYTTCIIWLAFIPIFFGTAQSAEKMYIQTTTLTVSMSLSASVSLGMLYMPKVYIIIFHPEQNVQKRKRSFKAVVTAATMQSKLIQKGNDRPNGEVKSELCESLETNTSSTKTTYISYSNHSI
For `CC(C(=O)N1CCN(C)CC1)N1C(=O)c2ccccc2C1=O` (stereo unspecified), the z-score was -0.255.

`COCCNC(=O)c1ccccc1NS(=O)(=O)c1ccc(C)c([N+](=O)[O-])c1` registered a z-score of -0.243.

`Cc1ccc(C(=O)CN(C(=O)c2ccc(Cl)c(Cl)c2)N2C(=O)C3CCCCC3C2=O)cc1` (stereo unspecified) gave a z-score of -0.0228.

As to `Nc1nonc1C(=O)NCCN=Cc1ccccc1O`, the z-score is -0.0696.

`COc1ccc(Cl)cc1S(=O)(=O)N1CCN(CC(=O)C(C)(C)C)CC1` came in with a z-score of -0.0402.

Molecule `Cc1ccc2c(n1)CC(C)(C)CC2=O` returned a z-score of 0.488.

In turn, `O=[N+]([O-])c1cc(-c2nnc(C34CC5CC(CC(C5)C3)C4)o2)cc([N+](=O)[O-])c1` returned a z-score of -0.0494.

In turn, `O=C(Nc1cccc(-c2nc3cc(Cl)ccc3o2)c1)C1CCCO1` (stereo unspecified) returned a z-score of -0.897.

Turning to `O=C(O)Cn1nc2ccccc2n1`, the z-score amounted to 0.054.

The molecule `CCN1CCN(CC(=O)NC2CCCC2)C(=O)C1=O` registered a z-score of 0.151.

`CN1CCN(CCOc2cccc(Cl)c2)CC1`: the z-score turned out to be 0.0749.

For the molecule `CCc1nnc(NS(=O)(=O)c2ccc(N=Cc3c(C)[nH]n(-c4ccc(Cl)cc4)c3=O)cc2)s1`, the z-score was -0.276.

`CC(C)CNC(=O)COC(=O)c1ccc(Cl)c(S(N)(=O)=O)c1` had a z-score of -0.04.

On to `CC(/C=C/c1ccc(Cl)o1)=C\C(=O)O`, for which the z-score is -0.292.

With `COc1ccccc1NC(=O)CNS(=O)(=O)c1ccccc1`, the z-score was -0.239.

`Cc1cccc(NCc2nc3ccccc3n2C)c1` registered a z-score of 0.0676.

For `Cc1ccc(OCc2nc3c4c(ncn3n2)-c2ccccc2CC42CCCC2)cc1`, the z-score was 0.173.

Turning to `COc1ccc(C)cc1NC(=O)c1ccc(CN2CCN(c3ccccc3)CC2)cc1`, the z-score is -0.262.

Take `Cc1nn(CCC(=O)NNC(=S)Nc2ccc(F)cc2)c(C)c1Br`: the z-score was 1.23.

The molecule `COCCNC(=O)c1cc(-c2cccc(OC)c2)on1` returned a z-score of -0.215.

`CCS(=O)(=O)c1ccc2oc(SCC(=O)NC3CCCC(C)C3C)nc2c1` (stereo unspecified): the z-score was -0.206.

Regarding `O=C(NC12CCC(O)C(SC1)/C2=N/O)c1ccccc1` (stereo unspecified), the z-score stood at 0.441.

As for `O=C(NC(=S)NCC1CCCO1)c1cccc([N+](=O)[O-])c1` (stereo unspecified), the z-score is 0.722.

In turn, `O=C(N/N=C/C=C/c1ccc2c(c1)OCO2)c1ccc([N+](=O)[O-])cc1` came in with a z-score of 0.0517.

For `C/C(N)=C(/C#N)C(=O)CSc1nnc(Nc2cccc(C)c2C)s1`, the z-score stood at 0.137.

`COCc1cc(C)nc(N2CCCCC2)c1C#N`: the z-score turned out to be 0.196.

Molecule `Cc1cccc(N(C(=O)c2nsc(Cl)c2Cl)C(C(=O)NC2CCCC2)c2ccc(O)cc2)c1C` (stereo unspecified) gave a z-score of 0.0533.

In the case of `Fc1ccccc1C(c1nnnn1Cc1ccc2c(c1)OCO2)N1CCN(Cc2ccco2)CC1` (stereo unspecified), the z-score was -0.322.

Consider `O=C(CN1C(=O)C2CC=CCC2C1=O)Nc1nnc(SCc2ccc(Cl)cc2)s1` (stereo unspecified), for which the z-score was -0.31.

Consider `CC1Cc2ccccc2N1C(=O)c1cnsn1` (stereo unspecified), for which the z-score amounted to 0.579.

`CCCOc1ccc(-c2csc(N)n2)cc1[N+](=O)[O-]`: the z-score is -0.349.

On to `C=CCn1c(CCCOc2ccc(Cl)cc2Cl)nnc1SCC(=O)Nc1nccs1`, for which the z-score is -0.131.

On to `COCCn1c(=NC(=O)c2cc(Cl)sc2Cl)sc2cc(S(N)(=O)=O)ccc21`, for which the z-score is -0.409.

Turning to `CCOC(=O)N1CCC2(CC1)C(C#N)=C(N)Oc1n[nH]c(C)c12`, the z-score is -0.141.

In turn, `O=C(NCCc1ccc(F)cc1)N1CCOCC1` came in with a z-score of -0.308.

With `COc1ccc(N2CCN(C(=O)CSc3nnc(-c4ccc5[nH]c(C)c(C)c5c4)o3)CC2)cc1`, the z-score is -0.322.

`CCCOC(=O)C1C2C=CC(C2)C1C(=O)OCC(=O)c1ccccc1` (stereo unspecified) displayed a z-score of -0.143.

Take `O=C(CC12CC3CC(CC(C3)C1)C2)N/N=C/c1ccc([N+](=O)[O-])o1`: the z-score amounted to 0.0479.

`Cc1cccc(C)c1N1CC(=O)N(c2c(C)cccc2C)CC1=O`: the z-score was -0.0539.

Turning to `CCCCC(=O)NS(=O)(=O)c1ccc(N=NN2CCOCC2)cc1`, the z-score is -0.294.

With `Cc1cc(C)cc(N2Cc3ccccc3C2)c1`, the z-score was -0.0226.

Molecule `Cc1ccc(OCC(=O)n2nc(C)cc2C)c(C)c1` returned a z-score of 0.688.

Turning to `O=C(CN1CCN(Cc2ccccc2F)C1=O)NCc1cccnc1`, the z-score is -0.0488.

Molecule `O=c1cc(-c2ccc3c(c2)OCCO3)oc2ccc(Cl)cc12` gave a z-score of 0.00721.

`COc1ccc(NC(=O)c2ccc(-c3ccc([N+](=O)[O-])cc3)o2)cc1OC` came in with a z-score of -1.57.

The molecule `CN(C)CCNC(=O)CN1C(=O)COc2ccc(C(C)(C)C)cc21` had a z-score of -0.247.

As for `CCOC(=O)c1cnn(-c2ccc(C(F)(F)F)cn2)c1N`, the z-score was -0.00627.

For the molecule `CCc1cccc2c(C(=O)CSc3nncn3-c3ccccc3OC)c[nH]c12`, the z-score was -0.601.

The molecule `Cc1cccc2cc(CN(CC3CCCO3)C(=O)c3ccco3)c(=O)[nH]c12` (stereo unspecified) registered a z-score of -0.233.

The molecule `O=[N+]([O-])c1cc(/C=N/Nc2nc(N3CCCCC3)nc(N3CCCCC3)n2)ccc1O` displayed a z-score of -0.557.

`Clc1cc(Cl)cc(CSc2nnc(-c3sccc3-n3cccc3)o2)c1` came in with a z-score of 0.398.

Consider `CCNC(=S)N(Cc1cc2cccc(C)c2[nH]c1=O)C1CCCC1`, for which the z-score was 0.976.

As for `COc1nc(NCCN2CCOCC2)nc(Nc2ccc([N+](=O)[O-])cc2)n1`, the z-score was determined as 1.5.

Consider `COCCCNC(=O)CN(c1cc(Cl)cc(Cl)c1)S(C)(=O)=O`, for which the z-score was 0.195.

The molecule `CCOC(=O)/C=c1\sc2n(c1=O)CCN=2` returned a z-score of -0.165.

As for `COc1ccc(N2C(=O)CC(NCCNc3ccc([N+](=O)[O-])cn3)C2=O)cc1` (stereo unspecified), the z-score is -0.27.

For the molecule `Cc1nnc(SCC(=O)NC2CCCC2)s1`, the z-score stood at 0.395.

`CC(C)(C)NCCOCCOc1ccccc1-c1ccccc1` yielded a z-score of -0.146.

As to `Cc1cc(=O)oc(C)c1C(=O)Nc1cnc2ccccc2c1`, the z-score worked out at 0.494.

Regarding `Cc1ccc2nc(-c3ccc(S(=O)(=O)N4CCOCC4)cc3)cn2c1`, the z-score was -0.531.

In turn, `Cc1cccn2cc(-c3ccc(S(=O)(=O)N4CCOCC4)cc3)nc12` displayed a z-score of -0.0314.

`COc1ccc(-c2nnc(SC(C)C(=O)NNC(=O)c3ccc(C)cc3)o2)cc1` (stereo unspecified) displayed a z-score of 2.1.

`Cc1cccc(-c2cc(C(=O)Nc3ccc4c(c3)OCCO4)c3ccccc3n2)c1`: the z-score was -0.3.

Molecule `COc1ccc(S(=O)(=O)Nc2ccc(S(=O)(=O)N(C)C)cc2)cc1[N+](=O)[O-]` displayed a z-score of -0.113.

Molecule `COc1cccc2c1OC1(C)CC2NC(=O)N1c1cccc(C(=O)N2CCN(c3ccccn3)CC2)c1` (stereo unspecified) registered a z-score of 0.0134.

In the case of `Cn1c(=NC(=O)CCl)sc2ccccc21`, the z-score was -0.0145.

Molecule `CCN(CC)c1ccc(C(=S)N2CCN(c3ccccc3)CC2)cc1` showed a z-score of 0.0899.

In turn, `COCCOC(=O)c1[nH]c2c(c1C)C(=O)CC(c1ccc(F)cc1)C2` (stereo unspecified) displayed a z-score of -0.126.

`Cc1ccc(NC(=O)c2ccc(CSc3ncnc4nc[nH]c34)cc2)c(C)c1` displayed a z-score of 0.0227.

Molecule `CCNc1nc(Oc2ccc(=O)n(C)n2)nc(N2CCOCC2)n1` gave a z-score of -0.0751.

On to `CCc1c(C)sc(NC(=O)C2CC2)c1C(=O)OC(C)C`, for which the z-score was -0.193.

The molecule `CC(C)NC(=S)NC(=O)/C=C/c1cccc2ccccc12` registered a z-score of 0.214.

`Cc1ccc(/C=N/NC(=O)CCCOc2ccc(Cl)cc2Cl)cc1`: the z-score was -0.111.

`COc1cc(/C=C(\C#N)C(=O)Nc2cccnc2)ccc1OC(C)C`: the z-score was determined as 2.99.

`Cc1nc(NCCO)c(C#N)c2c1COC(C)(C)C2` displayed a z-score of 0.352.

In turn, `S=C(NCC1CCCO1)Nc1ccccc1Cl` (stereo unspecified) came in with a z-score of -0.222.

For the molecule `Cn1c(=O)c2c(ncn2CC(=O)N/N=C/C(Br)=C/c2ccccc2)n(C)c1=O`, the z-score worked out at 0.116.

Molecule `CCn1c(N)nc2ccccc21` displayed a z-score of 0.0417.

The molecule `Cc1noc(NS(=O)(=O)c2ccc(N/C=C\C(=O)c3ccc4c(c3)OCO4)cc2)c1C` had a z-score of 0.0931.

`COc1ccccc1NC(=O)c1ccc(NC(=O)CSc2n[nH]c(N)n2)cc1` came in with a z-score of -0.238.

As for `Cc1ccc(C)c(-c2cc(C(=O)NNC(=S)NCC(C)C)c3ccccc3n2)c1`, the z-score is -0.49.

As for `CC(=O)N1CC=C2C(C#N)=C(N)C(C#N)(C#N)[C@H](c3ccoc3)[C@H]2C1`, the z-score is -0.136.

As to `CCOC(=O)c1sc(Nc2nc3cc4c(cc3s2)OCO4)cc1C`, the z-score was -0.155.

`CC(=O)c1ccc(N2CCN(C(=O)c3ccco3)CC2)c(F)c1` registered a z-score of -0.0315.

Regarding `COc1ccc(C(=O)NNC2=CC(=O)CC(C)(C)C2)cc1`, the z-score was -0.335.

For the molecule `CC(C)Cn1c(N)c(C(=O)CSc2nnnn2C)c(=O)n(C)c1=O`, the z-score is -0.302.

In turn, `Cc1c(Cl)cccc1Nc1nc(N)nc(CN2CCCCCC2)n1` had a z-score of -0.363.

As to `Cc1ccc(-c2csc(NC(=O)CSc3nc(C)cc(=O)[nH]3)n2)cc1`, the z-score was active: -3.08.

As to `CN1CCN(/C(=N\S(=O)(=O)c2ccc(F)cc2)c2ccccc2)CC1`, the z-score is -0.0184.

Consider `O=C(CSc1nc2ccccc2c(=O)n1CCCO)NCc1ccccc1`, for which the z-score was found to be 0.236.

`COc1ccc(S(=O)(=O)N2CCCCC2)cc1NC(=O)c1ccc2c(c1)OCO2` gave a z-score of -0.261.

Turning to `C=C(C)Cn1c(N2CCCC2)nc2c1c(=O)[nH]c(=O)n2C`, the z-score was -0.221.

For the molecule `O=C(Cn1cc([N+](=O)[O-])cn1)Nc1ccn(Cc2c(F)c(F)cc(F)c2F)n1`, the z-score is -0.06.

`Cc1ccc(C2CC(=O)NC(SCC(=O)OCc3ccccc3)=C2C#N)o1` (stereo unspecified) came in with a z-score of -0.199.

As for `O=C(CC1CCCCC1)NCC1CCCO1` (stereo unspecified), the z-score was -0.35.

`O=C(Nc1ccccc1)c1sc(Cl)nc1-c1ccccc1` showed a z-score of -0.405.

On to `COc1ccc(NC(=O)CCS(=O)(=O)c2ccccc2)c(OC)c1`, for which the z-score was 0.256.

In the case of `C=CCN1C(=O)/C(=C\c2ccco2)C(C(=O)OC)=C1C`, the z-score is -0.348.

For `CCSc1nnc(CCNC(=O)OC(C)(C)C)o1`, the z-score is -0.345.

As to `CSc1nn(-c2ccc(C(=O)OCC(=O)NC(=O)NC(C)C)cc2)c(=S)s1`, the z-score was -0.201.

`O=C(O)CCN(CCC(=O)O)S(=O)(=O)c1ccccc1` showed a z-score of -0.0389.

As for `O=C(/C=C/c1ccc(OCCCF)cc1)NCc1ccc(Cl)cc1`, the z-score is -0.204.

As for `CC(NS(=O)(=O)c1ccc(Cl)cc1)C(c1cccs1)N1CCN(C)CC1` (stereo unspecified), the z-score is 0.838.

In the case of `COc1cccc(NC(=O)COC(=O)c2ccco2)c1`, the z-score is -0.199.

`Clc1cnc(N/N=C/c2cccs2)c(Cl)c1` showed a z-score of 0.311.

In turn, `O=C(/C=C\c1cn(-c2ccccc2)nc1-c1cccs1)N1CCOCC1` registered a z-score of 0.512.

As for `Cc1ccc(-n2c(SCC(=O)NCCN3C(=O)CSC3=O)nnc2-c2ccccc2)cc1C`, the z-score is -0.27.

The molecule `CCOc1ccc(-n2ccnc2SCC(=O)N2CCCc3ccccc32)cc1` came in with a z-score of 0.0483.

`Cc1nnc2ccc(N3CCC4(CC3)OCCO4)nn12` gave a z-score of 0.165.

The molecule `O=C(NCC(=O)N(Cc1ccccc1)C(C(=O)NC1CCCC1)c1ccco1)c1ccco1` (stereo unspecified) returned a z-score of 0.256.

In turn, `O=c1[nH]c(=O)n(Cc2ccco2)c2c1C(C(F)(F)F)(C(F)(F)F)N=C(c1ccco1)N2` displayed a z-score of -0.261.
